Laboratory results reported in US20220112236A1 (NAVIGO PROTEINS, published 2022).

Key:
[1] = target: Natalizumab (IgG4); test: SPR, Biacore 3000, CM5 chip, 25 C, Langmuir 1:1 model
[2] = target: Panitumab (IgG2); test: as above

Natalizumab (IgG4), sequence (VH, as listed by the source, chain 1 of 2): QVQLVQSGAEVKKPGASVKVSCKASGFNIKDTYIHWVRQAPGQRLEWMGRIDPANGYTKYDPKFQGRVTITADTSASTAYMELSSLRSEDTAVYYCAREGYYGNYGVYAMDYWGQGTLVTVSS
Natalizumab (IgG4), sequence (VL, as listed by the source, chain 2 of 2): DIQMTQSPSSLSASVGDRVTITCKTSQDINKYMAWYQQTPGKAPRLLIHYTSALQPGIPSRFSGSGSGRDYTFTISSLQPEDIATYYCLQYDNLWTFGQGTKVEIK

B1: cs50 (designed binder)
chain: IDAKFDEAQQAAFYEILHLPNLTEDQRNAFIQSLRDDPSVSLSLLAEAKKLNDAQAPP
notes: also called Affilin-194928
For B1, the Kd [1] was 2.6 nM and the Kd [2] was 25.1 nM.
